The whole screen tested about 340,000 compounds, of which about 6,900 (2%) were called active. No stated cut-off is given here; in the data, active means inhibition above about 30%; inactive means below that, where a call was filed. The list shows a part of the results, in another mix than the full data. The source gives no active or inactive call for entries shown without one.
Each molecule was assayed against D(2) dopamine receptor (Homo sapiens) (UniProt P14416) (assay: HTS Assay for Allosteric Antagonists of the Human D2 Dopamine Receptor: Primary Screen for Antagonists). Conditions: HEK293 TREx D2 cells, calcium flux, dopamine EC80; at 10 µM; stronger effect = higher value.
In short: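 Tetracycline-induced HEK293 T-REx cells expressing D2 force-coupled to calcium signalling were dye-loaded, exposed to compound for 180 s, then challenged with an EC80 of dopamine; calcium flux was followed kinetically for a further 180 s.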
Further: 0% is about no effect.

Chain of UniProt P14416 (P14416 whole entry, looked up): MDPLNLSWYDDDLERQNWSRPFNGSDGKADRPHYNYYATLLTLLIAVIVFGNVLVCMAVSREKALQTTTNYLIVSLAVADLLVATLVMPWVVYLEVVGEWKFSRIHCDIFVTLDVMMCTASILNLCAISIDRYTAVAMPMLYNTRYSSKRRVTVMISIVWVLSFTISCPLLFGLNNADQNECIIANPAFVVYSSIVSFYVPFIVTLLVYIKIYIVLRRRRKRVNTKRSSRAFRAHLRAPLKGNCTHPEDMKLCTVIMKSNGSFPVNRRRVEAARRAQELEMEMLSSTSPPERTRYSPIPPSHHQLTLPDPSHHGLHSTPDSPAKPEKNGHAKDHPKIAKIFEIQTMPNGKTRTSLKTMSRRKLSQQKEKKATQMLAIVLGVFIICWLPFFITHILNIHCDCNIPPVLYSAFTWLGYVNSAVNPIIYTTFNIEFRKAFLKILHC

| SMILES | inhibition |
| --- | --- |
| CCOc1ccc(NC(=O)C2CCN(S(=O)(=O)c3c(C)noc3/C=C/c3ccco3)CC2)cc1 | 9.83% |
| c1ccc(N2CCN(Cc3cnc(N4CCOCC4)s3)CC2)cc1 | active: 38.3% |
| CCOC(=O)c1ccccc1NC(=O)N1CC(C)Oc2ccc(C)cc21 (stereo unspecified) | -2.33% |
| CCOc1ccc(NC(=O)CCn2cccn2)cc1 | 3.1% |
| CCCCOC(=O)/C(C#N)=C\c1ccc(-c2ccc(Cl)cc2)o1 | -1.66% |
| Nc1nnc(SCC(=O)NNC(=O)c2ccccc2)s1 | active: 37.2% |
| O=C(c1ccccc1F)N1c2nc(-c3ccco3)nn2C2(CCCCC2)[C@@H]2CCCC[C@@H]21 | 6.31% |
| Clc1cccc(-c2ccc(CNCCCN3CCOCC3)o2)c1 | active: 91.6% |
| COc1ccccc1CNC(=O)c1ccc(-n2c(C)cc3c2CCCC3)cc1 | 7.91% |
| Cc1c(Cl)cccc1NS(=O)(=O)c1ccc(NS(=O)(=O)c2ccc3c(c2)OCCO3)cc1 | -12.1% |
| COc1ccc(Cl)cc1NC(=O)c1cnc(N2CCCCC2)c2ccccc12 | 2.84% |
| CCOC(=O)Cn1c(=O)oc2cc(S(=O)(=O)NC(C)c3ccccc3)ccc21 (stereo unspecified) | -6.34% |
| CCc1ccc(CN(C(=O)Nc2cccc(Cl)c2)c2ccccn2)cc1 | 11.2% |
| COC(=O)c1nc2n(n1)C(c1cc(OC)ccc1OC)C=C(c1ccc(Br)cc1)N2 (stereo unspecified) | -18.9% |
| COc1ccc(C2=C(C)C(N3CCN(c4ccc(OC)cc4)CC3)=NS2(=O)=O)cc1 | -8.75% |
| CCC(CC)C(=O)Nc1nnc(S(=O)(=O)N2c3ccccc3CC2C)s1 (stereo unspecified) | -11.4% |
| CC(C)OC(=O)c1ccc(NC(=O)c2cncc(Br)c2)cc1 | active: 44.6% |
| CN(C(=O)c1ccc2c(c1)N(Cc1ccc(F)cc1)C(=O)c1ccccc1S2(=O)=O)C1CCCCC1 | -15.7% |
| COc1ccc(C(=O)NNc2ncnc3c2cnn3-c2ccc(C)cc2C)cc1 | 21.5% |
| CC(=O)c1ccc(NC(=O)C(C)N2CCN(C/C=C/c3ccccc3)CC2)cc1 (stereo unspecified) | active: 47% |
| CCOCCCn1c(=N)c(C(=O)NC(C)c2ccccc2)cc2c(=O)n3cccc(C)c3nc21 (stereo unspecified) | 1.37% |
| Cc1cc(N2CCC(C(=O)Nc3ccccc3Cl)CC2)n2nc(C)c(-c3ccc(Cl)cc3)c2n1 | -3.44% |
| Fc1cccc(-c2nnn3c2nc(NCc2ccc4c(c2)OCO4)c2ccccc23)c1 | 14.6% |
| Cc1ccc2occ(CC(=O)Nc3ccc(Cl)c(C(F)(F)F)c3)c2c1 | -12.2% |

| SMILES | inhibition |
| --- | --- |
| Cc1nc(N2CCCC2)ncc1C(=O)NCc1ccc(F)cc1 | 16.1% |
| Cc1cn2c(=O)c(S(=O)(=O)Nc3ccc(N4CCOCC4)cc3)c(C)nc2s1 | -12.7% |
| Fc1ccc(F)c(CN2CCN(c3ncccn3)CC2)c1 | active: 78.7% |
| O=C(c1ccco1)N1CCN(Cc2ccc(Br)cc2)CC1 | active: 79.7% |
| COCCNC(=O)c1cnn(-c2cccc(C)c2)c1-n1cccc1 | 0.0012% |
| COc1cc2ncc3c(-c4ccccc4)nn(CC(=O)NC4CCCCC4)c3c2cc1OC | 2.39% |
| CC1CCN(S(=O)(=O)c2cc(C(=O)NCc3ccccc3)n(C)c2)CC1 | 16.8% |
| CCc1ccc(-n2nc(CO)c(C(=O)NCc3cccnc3)n2)cc1 | 12.2% |
| O=C(c1ccc2c(c1)N(Cc1ccc(Cl)cc1)C(=O)c1ccccc1S2(=O)=O)N1CCN(Cc2ccccc2)CC1 | 4.72% |
| Cc1cc(C)cc(NC(=O)CCc2c(C)nc3c(c2C)c(=O)n(C)c(=O)n3C)c1 | 3.26% |
| Cc1ccc(CCNC(=O)CCn2nc(-c3ccc(Cl)cc3)ccc2=O)cc1 | 18.4% |
| CCN1CCN(C(=O)c2ccc3c(c2)c(C)c(C)n3Cc2ccccc2)CC1 | active: 37.5% |
| O=S(=O)(c1ccc(Br)cc1)c1nnn2c1nc(NCCc1ccccc1)c1sccc12 | -5.91% |
| Cc1nc2ccc(S(=O)(=O)NC(C(=O)N3CCN(c4cccc(Cl)c4)CC3)C(C)C)cc2s1 (stereo unspecified) | 23.6% |
| Cc1ccc(-c2onc(C)c2C)cc1S(=O)(=O)Nc1cccc(Cl)c1C | 0.32% |
| COc1ccc(N2C(=O)CCSC23C(=O)N(Cc2ccc(F)cc2)c2ccccc23)cc1 (stereo unspecified) | 9.46% |
| CCc1ccc(C(=O)NC2=NC(c3cc(OC)ccc3OC)CC(=O)N2)cc1 (stereo unspecified) | 14.6% |
| CC(=O)Nc1ccc(NC(=O)C(c2ccccc2)N2Cc3ccccc3C2=O)cc1 (stereo unspecified) | 4.74% |
| COC(=O)c1ccc(-c2nc(-c3ccc(OC)c(OC)c3)no2)cc1 | 2.79% |
| O=C(Nc1ccc(-c2nc3cc(NC(=O)c4ccc(Cl)cc4)ccc3o2)cc1)c1ccc(Cl)cc1 | 2.15% |
| CCCN(CCC)C(=O)C1CCCN(S(=O)(=O)c2cc(Br)cc3c2N(C(=O)CC)CC3)C1 (stereo unspecified) | -19.2% |
| COc1ccc(-c2cc(C(F)(F)F)n3nc(C(=O)Nc4sc5c(c4C(=O)OC(C)C)CCC(C)C5)cc3n2)cc1 (stereo unspecified) | 11.3% |
| Cc1ccccc1C(=O)Nc1nnc(S(=O)(=O)N(C)c2ccc(Cl)cc2)s1 | 21.6% |
| COC(=O)c1sccc1S(=O)(=O)N(CC(=O)Nc1ccc(C)c(F)c1)c1ccc(C)c(C)c1 | 5.99% |

| SMILES | inhibition |
| --- | --- |
| Cc1ccccc1Cn1c(=O)n(CCc2ccccc2)c(=O)c2sc3ccccc3c21 | 7.73% |
| Cc1ccc(NC(=O)c2sc3nc(-c4ccncc4)ccc3c2N)cc1 | 2.57% |
| CCOc1ccc(S(=O)(=O)c2c(C(=O)c3ccc(C)c(C)c3)cnc3ccccc23)cc1 | -12.9% |
| CCOC(=O)c1ccc(Nc2nnc(C(C)(C)C)c(=O)[nH]2)cc1 | active: 53.1% |
| COc1cc(NC(=O)C(NS(=O)(=O)c2ccc3c(c2)CCCC(=O)N3)C(C)C)cc(OC)c1 (stereo unspecified) | -2.06% |
| Cc1ccc(NC(=O)c2c(C)oc3ccc(O)c(CN(C)Cc4ccccc4)c23)c(C)c1 | 2.31% |
| COc1ccc(OC)c(CNc2ncnc3c2nc2n3CCCC2)c1 | -4.76% |
| CCc1c(C)nc(SCc2nc(-c3ccccc3C)no2)[nH]c1=O | 2.11% |
| CCc1ccc(CNC(=O)c2sc3nc[nH]c(=O)c3c2C)cc1 | -17.2% |
| O=C(COc1ccc(F)cc1)Nc1ccc(S(=O)(=O)N(Cc2ccccc2)c2ccccc2)cc1 | -16.2% |
| O=c1cc(CSc2ccccc2)[nH]c2ccc(F)cc12 | -6.7% |
| COc1ccc(NC(=O)CCn2c(-c3ccc(F)cc3)cc(C(C)=O)c2C)c(OC)c1 | -4.67% |
| CCCNc1ncnc2c1c(-c1ccccc1)cn2-c1ccc(OCC)cc1 | 19.1% |
| CCCOc1ccc(C(=O)Nc2ccc(-c3cc4ccccc4oc3=O)c(C)c2)cc1 | 0.979% |
| CCc1ccc(NC(=O)c2ccc(NS(=O)(=O)c3c(C)noc3C)cc2)cc1 | -13.4% |
| CCCCCCCNC(=O)C1(CC2CC(c3ccc(Cl)cc3)=NO2)CCN(C(=O)c2cc(OCC)c(OCC)c(OCC)c2)CC1 (stereo unspecified) | active: 43.9% |
| CCc1cccc(C)c1NC(=O)c1cc(S(=O)(=O)N2CCCCCC2)cn1C | 2.52% |
| O=C(NC1CC1)c1ccc(Cn2c(SCc3ccc(F)cc3)nc3cccnc32)cc1 | 0.0752% |
| COc1ccc(-c2cc(C(F)(F)F)nc(SCCC(=O)Nc3cccc(OC)c3)n2)cc1 | 16.9% |
| Fc1ccccc1/C=N/n1cc(-c2ccccc2)[nH]c1=S | active: 37.8% |
| Cc1ccc(Cl)cc1N1CCN(C(=O)c2nn(C)c3c2CS(=O)(=O)c2ccccc2-3)CC1 | 1.31% |
| Cc1ccc(Cl)cc1NC(=O)c1cc(CN2CCCC2)on1 | -0.542% |
| COc1ccc(CCNC(=O)CCc2cn(Cc3ccc(F)cc3)c3ccccc23)cc1OC | -5.99% |
| Cc1ccc(-c2nc(S(=O)(=O)c3ccccc3)c(SCC(=O)NC3CCCCC3)o2)cc1 | 11.3% |

| SMILES | inhibition |
| --- | --- |
| CC(C)CC(NC(=O)C1CCCCC1)C(=O)Nc1cccc(C(F)(F)F)c1 (stereo unspecified) | 4.23% |
| COc1ccccc1N1CCN(S(=O)(=O)CCNC(=O)COc2ccccc2F)CC1 | 13.4% |
| O=C(CCCn1c(=O)c2sccc2n(Cc2ccc(Cl)cc2)c1=O)NCc1ccc2c(c1)OCO2 | 14.7% |
| Cc1ccc(CNc2ncccc2-c2nc(-c3ccc(Cl)cc3)no2)cc1 | -5.2% |
| CC1=C(c2ccc(Cl)cc2)S(=O)(=O)N=C1N1CCC(C(=O)NCCc2ccco2)CC1 | -22.1% |
| CCOC(=O)c1ccccc1NC(=O)c1cc2c(s1)-c1ccccc1SC2 | -0.335% |
| COc1ccc(Br)cc1CNC(=O)CCc1cn(Cc2ccc(C)cc2)c2ccccc12 | 14.4% |
| COC(=O)c1sccc1S(=O)(=O)N1CCN(c2ccc(Cl)cc2)CC1 | -6.81% |
| c1nc(COc2nsnc2N2CCOCC2)cs1 | active: 36.2% |
| CCOC(=O)N1CCc2c(sc3c2c(=O)n(Cc2ccccc2)c(=O)n3CC(=O)Nc2ccc(F)cc2)C1 | -16.5% |
| CNC(=O)CN1C(=O)COc2ccc(S(=O)(=O)N3CCCCCC3)cc21 | 9.67% |
| CCN(CC)S(=O)(=O)c1ccc(OC)c(NC(=O)c2sc3ccccc3c2Cl)c1 | 4.53% |
| CN(c1ccc(F)cc1)S(=O)(=O)N1CCCC(C(=O)NCc2ccccc2Cl)C1 (stereo unspecified) | -14% |
| CC1CN(C(=O)CCC(=O)N2CCN(c3cccc(C(F)(F)F)c3)CC2)c2ccccc2O1 (stereo unspecified) | active: 40.7% |
| Cc1ccc2c(c1)c1c(c(=O)n(Cc3ccccc3)c(=O)n1Cc1ccccc1F)n2C | -0.532% |
| Cc1cccc(NC(=O)c2oc3ccccc3c2NC(=O)c2cc(=O)c3ccccc3o2)c1 | -11.6% |
| CCOc1ccc(N2CC(NC(=O)c3ccc(Cl)cc3)CC2=O)cc1 (stereo unspecified) | -28% |
| CCC(C)S(=O)(=O)c1oc(-c2cccs2)nc1S(=O)(=O)c1ccccc1 (stereo unspecified) | -19.8% |
| COc1cn(CC(=O)Nc2cc(C)cc(C)c2)c(CN2CCCCC2)cc1=O | 4.58% |
| O=S(=O)(Cc1ccc(Cl)cc1)c1ccccc1-c1nnc(-c2ccccc2)o1 | active: 54.9% |
| COc1cccc(-c2nnc(SCC(=O)N(C)C3CCCCC3)o2)c1 | -8.98% |
| CCc1cc(C(=O)NNC(=O)CCN2CCN(c3ccccc3)CC2)sc1C | active: 66.4% |
| CN1CCc2nc3sc(C(=O)c4ccc(F)cc4)c(N)c3cc2C1 | 9.89% |
| CCOc1ccccc1CNCc1c(C(=O)O)c(C)n(Cc2ccc(C)cc2)c1C | 0.42% |
